Results reported in article PMC6089501 (Journal of Medicinal Chemistry, 2018).
Read-outs that look alike come from different tables or passages of the source.

Tests used:
[1] = mouse
[2] = male, Sprague-Dawley, rat, in vivo
[3] = system: M. tuberculosis; details: in vivo; cited from earlier work
[4] = system: M. tuberculosis; details: cited from earlier work

NC(=O)c1sc(CN2CCOCC2)cc1OCCc1ccccc1 [Compound 18, 5-(Morpholinomethyl)-3-(2-phenylethoxy)thiophene-2-carboxamide]
% Peak Area, metabolite A P + O ([1]; C57 Black, in vivo): 4%

NC(=O)c1sc(N2CCOCC2)cc1OCCc1ccc(OC(F)(F)F)cc1 [Compound 37, 5-Morpholino-3-[2-[4-(trifluoromethoxy)phenyl]ethoxy]thiophene-2-carboxamide]
main in vivo metabolites (in words) [1]: products of oxidation of the morpholine
fraction of drug absorbed (Fa) from the gastrointestinal tract [2]: 21%
hepatic extraction ratio (ER) [2]: 44%
hepatic extraction ratio (ER) ([2]; po, 5 mg/kg): 0.4

CCOC(=O)NC(=O)c1ccsc1NC(=O)c1nc2ccccc2s1 [TCA1]
efficacy in mouse models of TB infection [3]: efficacious in both acute and chronic mouse models of TB infection
in vitro bactericidal activity [4]: in vitro bactericidal activity against both replicating and nonreplicating M. tuberculosis
